Sequences with one replicate were seen in a single cluster, so their values are uncertain.
system: ATP; test: switch fluorescence ratio, 500 uM ATP over buffer (Cy3 cluster intensity, sum of 5 cycles each) (fold (ratio)); higher = stronger signal-on switching upon ATP binding; sequences stand for … in TCGTCGGCAGCGTCAGATGTGTATAAGAGACAGTTTTTTTTTTTTTTTTTTTTTTTTT…TC; conditions: aptamer strand: ATP DNA aptamer (quencher-CACCTGGGGGAGTATTGCGGAGGAAGG + anchor), 100 nM annealed; ATP concentration: 500 uM; one replicate
Outline: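 Values give the fluorescence ratio for each switch-domain sequence, averaged from per-cluster ratios of summed target-cycle to summed buffer-cycle Cy3 intensity. The Cy3-labelled switching-strand clusters sat on a modified Illumina MiSeq flow-cell, were annealed to 100 nM quencher-labelled ATP aptamer, and were imaged in selection buffer, then after 15 min with 500 uM ATP at 22 °C. Five cycles ran with NaOH stripping and re-annealing between them, and clusters outside 100-1000 RFU were excluded.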
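Further: ATP exposure 15 min at 22 °C before imaging.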

| Sequence | switch fluorescence ratio |
| --- | --- |
| ACCAAATTGG | 0.971 |
| ACCAACATAT | 1.1 |
| ACCAAGTCT | 0.983 |
| ACCAATGGAA | 1.01 |
| ACCACATACG | 1.55 |
| ACCACATGTT | 1.09 |
| ACCACATTTG | 1.01 |
| ACCACCTGGT | 1.08 |
| ACCACGGACA | 1.76 |
| ACCACTTAGT | 1.07 |
| ACCAGCAG | 1.02 |
| ACCAGGGG | 1.39 |
| ACCAGTCCGT | 0.979 |
| ACCAGTGTGG | 1.06 |
| ACCATAAACG | 1.09 |
| ACCATGAGTA | 0.966 |
| ACCATGAGTT | 1.01 |
| ACCATTTAAT | 1.03 |
| ACCATTTGCT | 0.996 |
| ACCCACAACG | 1.24 |
| ACCCATTTGC | 0.958 |
| ACCCCCAGAA | 1.32 |
| ACCCCGCAGG | 2.28 |
| ACCCCGTCCG | 1.12 |
| ACCCCTCTTA | 1.01 |
| ACCCCTGACG | 1.04 |

| Sequence | switch fluorescence ratio |
| --- | --- |
| ACCCGACAGC | 1.57 |
| ACCCGACGAA | 1.48 |
| ACCCGGATTA | 1.02 |
| ACCCGTCACG | 1.08 |
| ACCCGTCTGG | 1.05 |
| ACCCGTGGCA | 1.07 |
| ACCCTACCAC | 1.38 |
| ACCCTCCTAT | 1.04 |
| ACCCTGTTG | 0.982 |
| ACCCTTAGTG | 1.1 |
| ACCCTTCAAC | 1.15 |
| ACCCTTGCCG | 1.08 |
| ACCCTTGGTA | 0.977 |
| ACCCTTTTCT | 1 |
| ACCGAAAGTT | 0.986 |
| ACCGAGAACC | 0.993 |
| ACCGAGAATA | 1.06 |
| ACCGAGGTG | 1.2 |
| ACCGCCGCAC | 1.73 |
| ACCGCCTGGA | 1.04 |
| ACCGCGGAAA | 1.03 |
| ACCGCTGTA | 0.981 |
| ACCGGAACTT | 1.11 |
| ACCGGAAGGG | 1.02 |
| ACCGGACTTG | 0.985 |
| ACCGGAGAGG | 1.01 |

| Sequence | switch fluorescence ratio |
| --- | --- |
| ACCGGCGTAC | 1.45 |
| ACCGGTAAAG | 0.991 |
| ACCGGTATTG | 1.05 |
| ACCGGTCTTT | 0.998 |
| ACCGTAATCT | 1.47 |
| ACCGTGATCC | 1.54 |
| ACCGTTAAAA | 1.01 |
| ACCGTTAGGC | 1.01 |
| ACCGTTCGAC | 1.28 |
| ACCGTTGGAG | 0.993 |
| ACCTAAGTTT | 1.05 |
| ACCTAGAAG | 1.07 |
| ACCTAGGACC | 1.13 |
| ACCTAGGATT | 1.04 |
| ACCTAGTGCT | 1.03 |
| ACCTATCTAG | 1.03 |
| ACCTATGTCT | 1.01 |
| ACCTCACGGT | 1.44 |
| ACCTCCATAG | 1.43 |
| ACCTCGCCTC | 1.47 |
| ACCTCGGATT | 0.97 |
| ACCTCTATTA | 1.02 |
| ACCTCTGTAA | 1.75 |
| ACCTCTTTAG | 0.963 |
| ACCTGAAAGA | 1.05 |
| ACCTGATTCT | 1.04 |

| Sequence | switch fluorescence ratio |
| --- | --- |
| ACCTGCAGTT | 1.06 |
| ACCTGCATGA | 1.14 |
| ACCTGGAGGT | 0.978 |
| ACCTGGGACT | 1.06 |
| ACCTTATAGA | 1.04 |
| ACCTTATAGG | 1.03 |
| ACCTTCGGTT | 1.02 |
| ACCTTCTCGA | 1.58 |
| ACCTTGAGAA | 1 |
| ACCTTTCGAT | 1.5 |
| ACCTTTCTTT | 1.01 |
| ACCTTTTAAT | 1.03 |
| ACCTTTTCGC | 1.58 |
| ACGAACCGAT | 1.24 |
| ACGAATATT | 1.04 |
| ACGAATCGTC | 1.01 |
| ACGACCCGTC | 1.02 |
| ACGACTTTGG | 0.996 |
| ACGAGAACCA | 1.02 |
| ACGAGACAGG | 1.05 |
| ACGAGAGA | 1.05 |
| ACGAGATATG | 1.01 |
| ACGAGATTGA | 1.05 |
| ACGAGCTTAG | 1.11 |
| ACGAGGACGA | 1.07 |
| ACGAGGAGAT | 1.02 |

| Sequence | switch fluorescence ratio |
| --- | --- |
| ACGAGGCCAT | 1.96 |
| ACGAGGCGAT | 6.4 |
| ACGAGGCGGT | 1.45 |
| ACGAGTGAGT | 1.02 |
| ACGATAAACG | 1.05 |
| ACGATACATT | 1.27 |
| ACGATATCTC | 1.13 |
| ACGATCCCGC | 1.52 |
| ACGATCTTGG | 0.981 |
| ACGATGACCA | 0.996 |
| ACGATTCTGG | 1.02 |
| ACGATTGGAC | 1.05 |
| ACGCAGAATC | 1.55 |
| ACGCAGCCCG | 1.09 |
| ACGCAGGGAT | 1.1 |
| ACGCAGGGCA | 0.999 |
| ACGCATATGG | 1.98 |
| ACGCCAGACA | 1.26 |
| ACGCCATCGG | 0.979 |
| ACGCCATGAC | 2.28 |
| ACGCCCGTGC | 1.1 |
| ACGCCCTAGT | 1.06 |
| ACGCCGCCGG | 1.04 |
| ACGCCGGGA | 1.02 |
| ACGCCGTTCA | 1.07 |
| ACGCCTAAGC | 1.07 |

| Sequence | switch fluorescence ratio |
| --- | --- |
| ACGCGCTACT | 1.07 |
| ACGCGCTTCA | 1.03 |
| ACGCGGCCT | 0.998 |
| ACGCTAGGGT | 1.05 |
| ACGCTCAGG | 1.17 |
| ACGCTCTCCA | 1.31 |
| ACGCTGGCCG | 1.02 |
| ACGCTGTATG | 1.05 |
| ACGCTTAGTA | 1.06 |
| ACGCTTCCGA | 1.46 |
| ACGCTTGGTT | 0.978 |
| ACGCTTTCGA | 1.06 |
| ACGGAAAGAA | 0.967 |
| ACGGAAAGG | 1.06 |
| ACGGAACCCA | 1.17 |
| ACGGAATGCC | 2.2 |
| ACGGACGATT | 1.32 |
| ACGGACTAGA | 1.14 |
| ACGGACTTG | 1.05 |
| ACGGAGAATT | 1.08 |
| ACGGAGCCG | 0.884 |
| ACGGAGCGAG | 2.68 |
| ACGGAGCGGA | 1.03 |
| ACGGAGTTGC | 1.2 |
| ACGGATAGCC | 1.01 |
| ACGGATGGGT | 1 |

| Sequence | switch fluorescence ratio |
| --- | --- |
| ACGGATGT | 1.01 |
| ACGGCATGAA | 1.09 |
| ACGGCCGCGG | 1.03 |
| ACGGCGGGTG | 1.1 |
| ACGGCTAAAA | 0.976 |
| ACGGGAGCTA | 1.08 |
| ACGGGATGCT | 1.11 |
| ACGGGCCGAT | 1.02 |
| ACGGGCCTGG | 0.982 |
| ACGGGCGCCA | 1.04 |
| ACGGGCTTGT | 0.991 |
| ACGGGGAGCG | 1.03 |
| ACGGGTAAGA | 1.05 |
| ACGGGTTTCG | 1.02 |
| ACGGTAATAG | 1.38 |
| ACGGTGCCTG | 1.01 |
| ACGGTGCGTT | 0.969 |
| ACGGTGCTCG | 0.946 |
| ACGGTGGTTA | 0.976 |
| ACGGTTATCG | 1.01 |
| ACGGTTGACC | 1.05 |
| ACGGTTGCTT | 1.07 |
| ACGTAGCGGG | 1.25 |
| ACGTAGCTCA | 1.58 |
| ACGTAGGTGG | 1.05 |
| ACGTATGTAC | 1.13 |

| Sequence | switch fluorescence ratio |
| --- | --- |
| ACGTCAACAT | 1.35 |
| ACGTCCGAAG | 1.63 |
| ACGTCCGTGA | 1.1 |
| ACGTCCTACG | 1.08 |
| ACGTCCTGT | 1.01 |
| ACGTCGTCCA | 1.03 |
| ACGTCGTGCC | 0.993 |
| ACGTCTACGA | 1.15 |
| ACGTCTCATA | 0.999 |
| ACGTCTCGGC | 0.939 |
| ACGTCTCTCA | 1.08 |
| ACGTCTGAAA | 1.06 |
| ACGTGACATG | 1.11 |
| ACGTGAGCAC | 1.11 |
| ACGTGATCCA | 1.04 |
| ACGTGCCGG | 0.995 |
| ACGTGGAGTA | 1 |
| ACGTGGCGGA | 1.03 |
| ACGTGGTCGC | 0.919 |

From the supplement of paper PMC10126150
